{"source": "PubChem BioAssay", "key": {"[1]": {"target": "Solute carrier family 12 member 5 (Homo sapiens) (UniProt Q9H2X9)", "sequence (Q9H2X9 whole entry, looked up)": "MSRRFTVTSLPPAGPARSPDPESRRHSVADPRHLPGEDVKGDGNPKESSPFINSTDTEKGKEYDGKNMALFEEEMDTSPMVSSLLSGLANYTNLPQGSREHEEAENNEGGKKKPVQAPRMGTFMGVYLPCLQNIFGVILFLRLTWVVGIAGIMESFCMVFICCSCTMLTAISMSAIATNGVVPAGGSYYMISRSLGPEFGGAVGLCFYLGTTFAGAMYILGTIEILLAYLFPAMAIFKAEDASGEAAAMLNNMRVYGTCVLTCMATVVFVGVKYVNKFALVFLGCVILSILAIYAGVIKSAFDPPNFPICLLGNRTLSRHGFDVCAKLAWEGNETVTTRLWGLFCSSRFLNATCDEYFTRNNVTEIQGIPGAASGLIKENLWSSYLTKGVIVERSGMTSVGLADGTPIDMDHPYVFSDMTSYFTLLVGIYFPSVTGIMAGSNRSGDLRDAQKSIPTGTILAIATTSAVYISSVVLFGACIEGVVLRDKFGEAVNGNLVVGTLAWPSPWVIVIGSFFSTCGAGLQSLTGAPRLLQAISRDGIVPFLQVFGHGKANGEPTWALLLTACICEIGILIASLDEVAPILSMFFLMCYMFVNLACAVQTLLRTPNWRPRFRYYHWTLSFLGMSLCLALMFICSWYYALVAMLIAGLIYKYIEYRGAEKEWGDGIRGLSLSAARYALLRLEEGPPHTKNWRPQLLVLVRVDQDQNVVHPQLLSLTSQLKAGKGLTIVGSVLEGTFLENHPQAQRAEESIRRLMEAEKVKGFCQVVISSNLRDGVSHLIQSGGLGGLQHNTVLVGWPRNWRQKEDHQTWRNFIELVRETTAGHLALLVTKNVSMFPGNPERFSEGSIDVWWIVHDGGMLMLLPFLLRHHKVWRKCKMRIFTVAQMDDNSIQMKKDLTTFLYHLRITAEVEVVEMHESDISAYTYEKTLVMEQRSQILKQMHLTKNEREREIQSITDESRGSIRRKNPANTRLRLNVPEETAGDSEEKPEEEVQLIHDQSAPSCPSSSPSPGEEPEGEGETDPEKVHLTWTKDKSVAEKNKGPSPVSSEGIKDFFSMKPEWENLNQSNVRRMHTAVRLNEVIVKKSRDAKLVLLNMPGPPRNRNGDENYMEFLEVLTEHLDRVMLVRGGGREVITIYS", "test": "retest of KCC2 transport modulation, ouabain-free – cell-based, HEK293 KCC2, thallium flux, FluoZin2, secondary assay 2, confirmation (AID 1715;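 active = thallium flux slope more than 3 SD above or below the plate's solvent-only control mean, mostly below; inconclusive = the two repeat wells disagreed; inactive = no significant shift from solvent-only controls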;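 note: raw slope with 0.1% DMSO as baseline and bumetanide as block control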)", "conditions": "HEK293-KCC2, thallium flux FluoZin2 fluorescence; at 10 µM; actives lie on both sides; F/F0 rise rate, 10–20 s post-thallium"}, "[2]": {"test": "compound effects on native HEK Tl+ uptake – HEK cells, counterscreen 1, counter-screen for KCC2 modulator project, confirmation (AID 1716;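 active = thallium flux rate significantly above the same plate's solvent-only control wells, beyond their mean plus 3 SD; inconclusive = the two replicate wells gave conflicting results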)", "conditions": "HEK293 parental cells, thallium flux FluoZin2, ouabain; at 10 µM; baseline-ratio fluorescence slope, 10–20 s after thallium"}, "[3]": {"target": "Solute carrier family 12 member 5 (Homo sapiens) (UniProt Q9H2X9)", "test": "modulation of KCC2 thallium flux in HEK cells – cell-based, ouabain, retest, confirmation (AID 1717);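 note: slope of initial-normalized fluorescence between seconds 10 and 20 after thallium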", "conditions": "HEK293-KCC2, thallium flux FluoZin2 fluorescence, at 10 µM, bidirectional: low = inhibitor, high = activator"}, "[4]": {"test": "native HEK Tl+ uptake effects, second counter-screen – HEK cells, counterscreen 2, counter-screen for KCC2 modulator project, confirmation (AID 1718;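 active = thallium flux slope above the same plate's solvent-control mean plus 3 SD in both duplicate wells; inconclusive = duplicate wells that disagreed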;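 note: run without ouabain in cells lacking the KCC2 cotransporter; slope of fluorescence scaled to its starting value between 10 and 20 s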)", "conditions": "HEK293 parental, thallium flux FluoZin-2 fluorescence slope; at 10 µM", "how_it_was_run": "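Test system: parental HEK cells / Reagent: thallium sulfate stimulus, 12 mM in buffer, pH 7.3 / Compound: single 10 µM final compound dose, 0.1% DMSO / Timing: overnight cell culture at 37 °C, 48 min dye loading, compound before thallium / Detection: FluoZin-2 fluorescence kinetics / Read-out: rate of F/F0 rise, 10–20 s after thallium addition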"}}, "note": "Inconclusive means that the source gave no clear call. Such entries were picked first, then a sample of the others. Active and inactive are the calls of the source.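 Rule for the calls, unless noted: active = thallium flux slope beyond 3 SD from same-plate DMSO control mean in most replicates, usually higher, sometimes lower; inconclusive = repeat tests gave conflicting results; inactive = no significant difference from controls in most replicates.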", "data": [{"smiles": "CC(=O)NCCOC(=O)Nc1cccnc1", "values": [{"measurement": "normalized thallium flux", "setting": "[1]", "value": "inconclusive: 0.0262"}, {"measurement": "thallium flux rate (normalised fluorescence)", "setting": "[2]", "value": "inconclusive: 0.00782"}, {"measurement": "raw Tl+ flux slope (below DMSO = inhibition, above = activation)", "setting": "[3]", "value": "inactive: 0.0185"}, {"measurement": "thallium flux slope", "setting": "[4]", "value": "inactive: 0.0103"}]}, {"smiles": "Fc1ccc(CSc2nncn2NC/C=C/c2ccccc2)cc1", "values": [{"measurement": "normalized thallium flux", "setting": "[1]", "value": "inconclusive: 0.0261"}, {"measurement": "raw Tl+ flux slope (below DMSO = inhibition, above = activation)", "setting": "[3]", "value": "inconclusive: 0.0192"}]}, {"smiles": "Cc1c(NC(=O)CN2C(=O)c3ccccc3S2(=O)=O)c(=O)n(-c2ccccc2)n1C", "values": [{"measurement": "normalized thallium flux", "setting": "[1]", "value": "inactive: 0.0348"}, {"measurement": "thallium flux rate (normalised fluorescence)", "setting": "[2]", "value": "inactive: 0.00786"}, {"measurement": "raw Tl+ flux slope (below DMSO = inhibition, above = activation)", "setting": "[3]", "value": "inactive: 0.0212"}, {"measurement": "thallium flux slope", "setting": "[4]", "value": "inconclusive: 0.0124"}]}, {"smiles": "Cc1ccccc1-c1n[nH]c(=S)n1/N=C/c1ccc(-c2ccccc2Br)o1", "values": [{"measurement": "normalized thallium flux", "setting": "[1]", "value": "inactive: 0.0304"}, {"measurement": "thallium flux rate (normalised fluorescence)", "setting": "[2]", "value": "active: 0.00991"}, {"measurement": "raw Tl+ flux slope (below DMSO = inhibition, above = activation)", "setting": "[3]", "value": "inconclusive: 0.0251"}, {"measurement": "thallium flux slope", "setting": "[4]", "value": "inconclusive: 0.0102"}]}, {"smiles": "S=c1[nH]nc(-c2ccc(Br)cc2)n1Cc1ccco1", "values": [{"measurement": "normalized thallium flux", "setting": "[1]", "value": "inactive: 0.029"}, {"measurement": "thallium flux rate (normalised fluorescence)", "setting": "[2]", "value": "active: 0.0146"}, {"measurement": "raw Tl+ flux slope (below DMSO = inhibition, above = activation)", "setting": "[3]", "value": "inconclusive: 0.0238"}, {"measurement": "thallium flux slope", "setting": "[4]", "value": "active: 0.0142"}]}, {"smiles": "COCCNC(=O)COc1ccc(C)cc1C", "values": [{"measurement": "normalized thallium flux", "setting": "[1]", "value": "inactive: 0.0299"}, {"measurement": "thallium flux rate (normalised fluorescence)", "setting": "[2]", "value": "inactive: 0.00753"}, {"measurement": "raw Tl+ flux slope (below DMSO = inhibition, above = activation)", "setting": "[3]", "value": "inactive: 0.0199"}, {"measurement": "thallium flux slope", "setting": "[4]", "value": "inconclusive: 0.0107"}]}, {"smiles": "CN1C(=O)C(N=Nc2ccccc2C(=O)O)N(C)C1=S", "note": "(centres undefined)", "values": [{"measurement": "normalized thallium flux", "setting": "[1]", "value": "inconclusive: 0.0303"}, {"measurement": "thallium flux rate (normalised fluorescence)", "setting": "[2]", "value": "active: 0.00541"}, {"measurement": "raw Tl+ flux slope (below DMSO = inhibition, above = activation)", "setting": "[3]", "value": "active: 0.0146"}, {"measurement": "thallium flux slope", "setting": "[4]", "value": "inactive: 0.00947"}]}, {"smiles": "CC1Cc2ccccc2N1C(=O)CCn1c(=O)sc2ccccc21", "note": "(centres undefined)", "values": [{"measurement": "normalized thallium flux", "setting": "[1]", "value": "active: 0.0213"}, {"measurement": "thallium flux rate (normalised fluorescence)", "setting": "[2]", "value": "inconclusive: 0.00651"}, {"measurement": "raw Tl+ flux slope (below DMSO = inhibition, above = activation)", "setting": "[3]", "value": "active: 0.0127"}, {"measurement": "thallium flux slope", "setting": "[4]", "value": "inconclusive: 0.00905"}]}, {"smiles": "O=c1c2ccccc2c(-c2n[nH]c(=S)o2)nn1Cc1ccccc1", "values": [{"measurement": "normalized thallium flux", "setting": "[1]", "value": "inconclusive: 0.0272"}, {"measurement": "thallium flux rate (normalised fluorescence)", "setting": "[2]", "value": "inactive: 0.00684"}, {"measurement": "raw Tl+ flux slope (below DMSO = inhibition, above = activation)", "setting": "[3]", "value": "active: 0.0136"}, {"measurement": "thallium flux slope", "setting": "[4]", "value": "inconclusive: 0.00989"}]}]}
